Test results: article PMC12040169 (PLOS Biology, 2025)
This is one part of the list.

Test system: T1, C. trachomatis L2/434/Bu expressing GFP (CTL2-GFP)
T1 construct: L2/434/Bu GFP intracellular growth in HeLa cells
Design: species or system HeLa; C. trachomatis total inclusion area by high-content imaging, normalised to DMSO
Conditions: total inclusion area; 28.5 h, 10 µM; inhibitor
Summary of the method: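 Post-fluorescence-read fixation, DNA staining with Hoechst and high-content imaging; GFP inclusion area and number per well, and nuclei counts, used as proxies for bacterial growth and host viability.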

Compound | % of control remaining
CC1=CCC2(CC1)COC(C(C)(C)CN(C)C)OC2 (stereo not drawn) [CBK011369] | 118.157
Cc1ccc(-c2nc3ccccc3s2)cc1NC(=O)c1sc2ccccc2c1Cl [CBK263865] | 111.829
CC(C)COC(=O)N1CCC(N(C)Cc2ccc(-c3ccc(S(C)(=O)=O)cc3)nc2)CC1 [CBK165259T] | 55.6879
Cn1ncc2c(=O)n(Cc3noc(-c4ccsc4)n3)cnc21 [CBK305056] | 54.451
COC(=O)c1csc2c1N[C@H](C1CC3C=CC1C3)[C@@H]1CCO[C@H]21 (stereo partly drawn) [CBK303251] | 72.3476
COc1cc2c(cc1OC)C1c3ccccc3NC(c3ccccc3F)N1CC2 (stereo not drawn) [CBK286311] | 91.883
Cc1nc2ccc(C(=O)N3CCCCC3)cn2c1N(C)C=O [CBK145480] | 97.676
O=C(NCc1ccccc1)c1cnsn1 [CBK267302] | 107.145
Cc1ccc(OCC(=O)Nc2ncn(Cc3cccnc3)n2)cc1 [CBK304888] | 71.5868
Cc1ccc(CNC(=O)c2ccc(-n3ccnc3)c(-n3cccc3)c2)o1 [CBK284812] | 110.133
CC(NCc1nc(=O)c2sccc2[nH]1)c1ccc2c(c1)OCCO2 (stereo not drawn) [CBK295157] | 95.8339
CCC1=C(C)C(=O)N(C(=O)NCCc2ccc(S(=O)(=O)NC(=O)NC3CCC(C)CC3)cc2)C1 (stereo not drawn) [CBK011561] | 86.6886
Cc1ncc(COP(=O)(O)O)c(/C=N/c2ccc3ccccc3c2)c1O [CBK261460] | 70.8087
CC(Cc1cccs1)NC(=O)c1cc(C2CC2)on1 (stereo not drawn) [CBK283244] | 84.7285
CC(C)=NNC(=O)CN(c1ccc(C)cc1)S(=O)(=O)c1ccccc1 [CBK262280] | 88.5864
CNC(C)Cc1ccccc1Sc1ccccc1 (stereo not drawn) [CBK027167G] | 63.4599
CC(Oc1ccccc1)C(=O)Nc1ccccc1-c1ccccc1 (stereo not drawn) [CBK264059] | 80.0868
Cc1noc(C)c1NC(=O)N(Cc1ccccc1C(F)(F)F)C1CCC(N)CC1 (stereo not drawn) [CBK045963C] | 53.0347
COc1ccc(CN2CCCc3ccccc32)cc1 [CBK126458] | 94.5396
COC(=O)NC(=S)Nc1ccc2c(c1)OCCO2 [CBK018644] | 92.588
CCC(C)(CC(=O)O)CC(=O)N1CCC2(C1)NCCc1c2[nH]c2ccccc12 (stereo not drawn) [CBK047003] | 102.155

Compound | % of control remaining
O=C(Nc1ccccc1C(=O)O)c1ccccc1Cl [CBK287114] | 99.5583
CCN(CC)CCNC(=O)C1CCCCN1S(=O)(=O)c1ccc(C)cc1 (stereo not drawn) [CBK101088] | 80.6952
COC(=O)c1cccc(OCC(O)Cn2ccnc2)c1 (stereo not drawn) [CBK307408] | 91.734
COc1ccc(Cl)cc1N1CCN(Cc2ccc(C(C)C)cc2)CC1 [CBK126407] | 76.1183
Cc1ccc(-n2nc(-c3ccc(NC(=O)c4ccccc4)cc3)cc2NC(=O)c2ccccc2)cc1 [CBK261265] | 93.6087
CCOC(=O)C1CC1CN1CCCN(S(=O)(=O)c2ccc(C(=O)c3ccccc3)cc2)CC1 (stereo not drawn) [CBK063028] | 81.1196
O=C(c1ccco1)N1Cc2nc[nH]c2C[C@H]1c1nc(-c2ccc3ccccc3c2)no1 [CBK288965] | 99.5722
COc1ccc(C2(C(F)(F)F)NC(=O)N3CCN=C3S2)cc1 (stereo not drawn) [CBK019170] | 107.337
COc1ccc(-c2nnc(SCc3csc(Nc4ccccc4)n3)n2-c2ccccc2)cc1 [CBK265205] | 110.593
c1ccc2c(c1)OCC(COc1nccc(N3CCCNCC3)n1)O2 (stereo not drawn) [CBK085471] | 86.7815
FC(F)(F)c1ccnc(OCCc2c[nH]c3ccccc23)n1 [CBK116625] | 75.8243
CCn1cc(-c2cncn2CCN(C)C2CCCC2)cn1 [CBK281551] | 91.4927
CCOC(=O)CN1CCN(S(=O)(=O)c2ccc3ccccc3c2)CC1 [CBK043738] | 82.3179
O=C1Nc2ccc(-c3ccsc3)cc2C1(O)O [CBK000421] | 65.8609
CCNC(=O)N1C(CC(=O)Nc2cccc(OC)c2)C(=O)NC2CCCCC21 (stereo not drawn) [CBK269848] | 63.6448
CNC(=O)C1(C)CCCN1C(=O)c1cc2cc(C)ccc2n1C (stereo not drawn) [CBK281375] | 108.031
C=C(C)Cn1c(SCC(C)C)nnc1-c1ccc(F)cc1 [CBK200085] | 108.091
O=C(c1cc2c(s1)CCC2)N1CCC[C@H]1[C@H](O)c1nccs1 [CBK284287] | 58.6891
COc1ccc(S(=O)(=O)N(C)CC(=O)Nc2cccc(C(F)(F)F)c2)cc1OC [CBK266242] | 138.066
COc1ccccc1-c1nnc(SCC(=O)O)n1-c1ccccc1 [CBK116149] | 92.8654
CCN1CCN(C(=O)CN(Cc2ccccc2)S(=O)(=O)c2c(C)cc(C)cc2C)CC1 [CBK266670] | 89.5918

Compound | % of control remaining
CSCCN1CCC(Oc2nccnc2OC2CCCCC2)CC1 [CBK082873T] | 87.3955
CCOc1cc(OCC)cc(C(=O)Nc2ccc(-c3nc4ncccc4o3)cc2)c1 [CBK263440] | 101.501
O=S(=O)(c1cccc2nonc12)N1CCCCCC1 [CBK265627] | 118.375
N#CCCCCn1cc(NC(=O)NCCc2cccs2)cn1 [CBK044855] | 102.668
CCOC(=O)c1cnn2c(O)cc(CN(Cc3ccco3)C3CC3)nc12 [CBK305613] | 78.2859
CCN(CC)C(=O)Cn1nc(C)n2c(cc3ccsc32)c1=O [CBK284104] | 81.8035
Cc1cc2oc(=O)cc(COC(=O)c3ccc(-n4cccn4)cc3)c2cc1Cl [CBK296626] | 84.3044
CCCCNCC(=O)Nc1sc2c(c1C(=O)O)CCCC2 [CBK287207] | 105.474
Cc1cc(CNCc2c(C(C)C)nn(C)c2N(C)C)no1 [CBK304855] | 50.0929
Cc1cc(C)n(CCCNC(=O)Cn2cnc3sc(C)c(C)c3c2=O)n1 [CBK305852] | 4.393
CN1CC(CO)Oc2ccccc21 (stereo not drawn) [CBK003872C] | 102.888
CCOc1cc(C(=S)N2CCN(C)CC2)ccc1OCC(=O)N1CCOCC1 [CBK266856] | 69.7561
CCc1ccc(OCC(=O)O/N=C(\N)c2ccncc2)c(Br)c1 [CBK265994] | 81.9178
C=CCn1c2cc(C)sc2c2cnn(CC(=O)OCC)c(=O)c21 [CBK284165] | 72.6803
O=C(Nc1ccc(O)c(-c2nc3ccccc3o2)c1)c1ccc(-c2ccc([N+](=O)[O-])cc2)o1 [CBK263439] | 86.8246
NS(=O)(=O)c1ccc(NC(=O)CN2CCC(Cc3ccccc3)CC2)cc1 [CBK266161] | 120.265
NS(=O)(=O)c1ccc(NC(=O)CSc2nc3sc4c(c3c(=O)n2-c2ccc(Cl)cc2)CCCC4)cc1 [CBK267577] | 100.092
CCOC(=O)C1(C2CCCCC2)CCN(C(=O)CCSC)CC1 [CBK136929] | 97.6349
O=C(NCC(CO)Cc1ccccn1)c1ccc2cc[nH]c2c1 (stereo not drawn) [CBK305222] | 47.6714
CC1=C(C(=O)OCc2ccccc2)C2(C(=O)Nc3ccccc32)C(C(=O)OCc2ccccc2)=C(N)O1 (stereo not drawn) [CBK262576] | 100.595
CCCn1nccc1S(=O)(=O)NCCN1CCCCC1CO (stereo not drawn) [CBK307259] | 89.353

Compound | % of control remaining
O=C(O)Cn1c2ccccc2c2cc([N+](=O)[O-])ccc21 [CBK261732] | 91.7114
NS(=O)(=O)c1cccc(NC(=O)c2cccnc2)c1 [CBK024417] | 83.3389
COc1cc(-c2ccc3ccc(=O)[nH]c3n2)cc(OC)c1OC [CBK073721] | 145.688
COc1ccc(C(=O)Nc2ccccc2Nc2cc(-c3ccccc3)nn2-c2ccccc2)cc1 [CBK261296] | 70.912
CC1=CC(C)C(CN(CCC[N+](C)(C)C)C(=O)Nc2ccccc2)C(C)C1 (stereo not drawn) [CBK262507I] | 110.161
O=C(NC1CCCC1)c1ccccc1Cl [CBK001992] | 99.3881
C[C@H](NC(=O)N1CCN(C(=O)CCc2c[nH]c3ccccc23)CC1)C(=O)O [CBK286774] | 82.2804
CCN(CC)CCn1c(=N)n(CC(=O)OC)c2ccccc21 [CBK262517B] | 57.238
N#Cc1nccnc1NCc1ccccc1CN1CCCC1CO (stereo not drawn) [CBK306418] | 74.1137
NS(=O)(=O)c1ccc(CNC(=O)c2ccccc2Nc2cccc(C(F)(F)F)c2)cc1 [CBK149579] | 106.128
CCOC(=O)N1CCC(NS(=O)(=O)c2cn(C)c(=O)n(C)c2=O)CC1 [CBK305699] | 65.8293
O=C(C1CCC1)N1CCC(n2nc(C3CC3)ccc2=O)CC1 [CBK284239] | 61.9673
CCCC/C=C/c1cnc(N)c(-c2ccc(N3CCOCC3)cc2)n1 [CBK063891] | 81.6644
CC(C)(C)c1ccc(C(=O)NNC(=O)C(=O)Nc2ccccc2)cc1 [CBK261701] | 104.591
CCn1cc(Br)c(C(=O)Nc2nccs2)n1 [CBK265890] | 111.976
Cc1c(C(=O)O)sc(S(=O)(=O)N2CCN(C(=O)CCC3CCCC3)CC2)c1C(=O)O [CBK297121] | 72.552
O=C(Nc1ccccc1)c1cc2sccc2s1 [CBK057696] | 67.2572
CS(=O)(=O)Nc1cc(-c2noc([C@@H]3CCCN3Cc3ccncc3)n2)ccn1 [CBK288886] | 101.764
